Laboratory results from PMC4336329 (PLoS ONE, 2015).
About 2,200 (0.71%) of roughly 310,000 compounds showed an effect of 50% or more. Effects have a minus sign here. This is one part of the list.

What follows are molecules tested against human ether-à-go-go-related gene (hERG) potassium channel (human, UniProt Q12809) (assay: primary screen, population patch clamp on CHO cells stably expressing hERG).
human ether-à-go-go-related gene (hERG) potassium channel, sequence (Q12809 whole entry, looked up): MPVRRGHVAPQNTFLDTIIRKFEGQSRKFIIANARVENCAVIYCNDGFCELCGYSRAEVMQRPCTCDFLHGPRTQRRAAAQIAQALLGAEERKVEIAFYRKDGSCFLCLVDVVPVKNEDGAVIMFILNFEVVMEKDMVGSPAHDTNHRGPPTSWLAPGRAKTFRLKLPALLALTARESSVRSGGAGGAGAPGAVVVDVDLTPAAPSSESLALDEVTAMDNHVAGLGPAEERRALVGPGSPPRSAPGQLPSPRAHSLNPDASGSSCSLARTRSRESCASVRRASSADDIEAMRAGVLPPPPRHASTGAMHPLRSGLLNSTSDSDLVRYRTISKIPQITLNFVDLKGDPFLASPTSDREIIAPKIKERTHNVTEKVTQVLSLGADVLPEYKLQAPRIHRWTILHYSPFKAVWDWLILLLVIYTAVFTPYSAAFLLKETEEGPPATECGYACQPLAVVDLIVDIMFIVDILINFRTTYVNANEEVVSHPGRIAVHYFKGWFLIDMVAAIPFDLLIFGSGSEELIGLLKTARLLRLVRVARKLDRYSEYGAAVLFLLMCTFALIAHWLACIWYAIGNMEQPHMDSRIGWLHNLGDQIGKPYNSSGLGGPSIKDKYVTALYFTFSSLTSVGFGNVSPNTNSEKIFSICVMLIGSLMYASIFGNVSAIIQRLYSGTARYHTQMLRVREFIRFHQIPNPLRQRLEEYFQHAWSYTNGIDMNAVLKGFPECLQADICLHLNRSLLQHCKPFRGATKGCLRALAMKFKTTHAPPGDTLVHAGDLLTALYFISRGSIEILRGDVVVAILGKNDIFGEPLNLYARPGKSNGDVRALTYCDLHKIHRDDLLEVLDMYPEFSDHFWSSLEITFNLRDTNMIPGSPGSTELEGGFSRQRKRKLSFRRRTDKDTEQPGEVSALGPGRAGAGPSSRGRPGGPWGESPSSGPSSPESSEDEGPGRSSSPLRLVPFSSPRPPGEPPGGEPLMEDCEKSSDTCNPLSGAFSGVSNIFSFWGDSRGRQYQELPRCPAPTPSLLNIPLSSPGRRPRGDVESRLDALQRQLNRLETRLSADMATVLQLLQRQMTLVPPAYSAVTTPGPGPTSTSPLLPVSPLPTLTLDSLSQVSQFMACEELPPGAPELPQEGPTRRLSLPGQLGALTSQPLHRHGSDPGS

Structure (SMILES) | hERG current change (%, negative = inhibition) at 1uM
COc1ccc(NC(=O)CSc2nnc(-c3ccccc3)n2N)cc1 | 7.49%
CCOc1ccccc1NC(=O)C(OC(=O)c1cnccn1)c1ccccc1 (stereo not drawn) | 13.9%
COC(=O)c1c(NC(=O)/C=C/C(=O)O)sc(C)c1-c1ccc(C)cc1 | -0.598%
O=C(O)/C(=N/NC(=O)c1ccc(Cl)cc1)c1ccccc1 | 7.71%
Cc1nc2ccccc2c(=O)n1-c1ccc(NS(=O)(=O)c2ccc(F)cc2)cc1 | -6.05%
O=C(NCc1ccco1)c1nn2c(C(F)(F)F)cc(-c3cccs3)nc2c1Br | 2.62%
O=C(Cn1ncn2c(cc3sccc32)c1=O)NC1CCCC1 | 10.7%
COc1ccc(Cn2c(=S)[nH]c3cc(OC)c(OC)cc3c2=O)cc1 | 7.98%
COc1cccc(NC(=O)N2CCCC2C(=O)Nc2ccc3c(c2)OCCO3)c1 (stereo not drawn) | 10.2%
O=[N+]([O-])c1cc(C2Nc3cccc4cccc(c34)N2)ccc1Cl | 12.7%
CN1CCCN(C(=O)Cc2c(Cl)cccc2Cl)c2nc3ccccc3nc21 | 14.8%
COc1ccc(C(=O)NCc2n[nH]c(=S)n2-c2ccccc2)cc1OC | 21.3%
Cc1csc(NC(=O)CS(=O)(=O)c2ccccc2)n1 | 1.28%
CCn1c(COc2ccccc2)nnc1SCC(=O)Nc1cc(C)ccc1OC | -8.46%
O=C(NNC(=O)c1ccccc1Br)c1cccs1 | 12%
CN(Cc1ccccc1)S(=O)(=O)c1nnc(NC(=O)c2ccc(F)cc2)s1 | 1.32%
CSc1ccccc1OCc1cc(C(=O)NCCn2nc(C)cc2C)no1 | 8.49%
CC1CCc2c(sc(NC(=O)Cn3cnc([N+](=O)[O-])n3)c2C(N)=O)C1 (stereo not drawn) | 10.2%
C/C(=N\NC(=O)CN1CCN(S(=O)(=O)c2ccc(C)cc2)CC1)c1ccc(O)cc1 | 9.16%
O=C(Nc1ccc(N2CCOCC2)cc1)c1cccc2ccccc12 | 14.9%
O=C1CCC(C(=O)OCc2nnc(-c3ccccc3)o2)=NN1 | 15.1%
Cc1ccc(C)n1-c1ccc(-c2nnc3n2CCCCC3)s1 | 7.47%
Cc1ccc(NC(=O)/C(C#N)=C/c2cc(C)n(-c3ccc(N4CCOCC4)c([N+](=O)[O-])c3)c2C)c(C)c1 | -11.2%

Structure (SMILES) | hERG current change (%, negative = inhibition) at 1uM
COC(=O)C1=Cc2cc(OC)cc([N+](=O)[O-])c2OC1N1CCOCC1 (stereo not drawn) | -0.802%
O=c1oc(-c2ccccc2F)nc2c1cnn2-c1ccccc1 | 6.5%
CC1=NN(c2ccccc2)C(=O)/C1=C\c1cn(-c2ccccc2)nc1C | 9.11%
COCCCn1c(=N)c(C(N)=S)cc2c(=O)n3cccc(C)c3nc21 | -70.3%
CCOC(=O)c1nn(-c2cccc(C)c2)c2nnc(Cc3ccc(C)cc3)c(=O)n12 | 9.22%
Cc1ccc(NCC(=O)Nc2cccc(S(=O)(=O)N(C)C)c2)c(Cl)c1 | 6.21%
O=C(Nc1cccnc1)c1cc(-c2ccc3c(c2)OCO3)on1 | -1.48%
Cc1ccc(N2C(=O)N(CC(=O)Nc3ccc(C)cc3Cl)C(=O)C2C)cc1 (stereo not drawn) | 5.48%
CC(=O)c1ccc(OCCCC(=O)NC(C)c2ccc(S(N)(=O)=O)cc2)cc1 (stereo not drawn) | 12.7%
OCCOCCn1c(C2CCCN2c2nc(-c3ccc(F)cc3)cs2)nc2cc(C(F)(F)F)ccc21 (stereo not drawn) | -73.2%
CCc1ccc2oc(=O)cc(CN3CCOCC3)c2c1 | -3.89%
COc1ccccc1OCCNC(=O)c1cccc(S(=O)(=O)N2CCN(Cc3ccccc3)CC2)c1 | -6.1%
COc1ccc(-c2nn(-c3ccccc3)cc2N)cc1 | 3.81%
Cc1noc(C)c1CSCC(=O)N(C)CC(=O)Nc1ccc(Cl)c(Cl)c1 | 12.9%
C=CCNC(=S)N/N=C/c1ccc(C)s1 | 9.18%
O=C(NCCCNC(=O)c1cc(Cl)ccc1Cl)c1ccccn1 | -0.609%
O=C(NC(Cc1c[nH]c2ccccc12)C(=O)Nc1ccc(F)c([N+](=O)[O-])c1)c1cccs1 (stereo not drawn) | 14%
Cn1c(CC(=O)Nc2ccccc2)c(Sc2ccccc2)c2ccccc21 | 15.1%
COC(=O)c1ccc(CN2CCC(Oc3cccc(C(=O)N4CCCC4)c3)CC2)cc1 | -22%
COc1ccc(S(=O)(=O)N(C)c2ccc(C(=O)NC3CCCC3)cc2)cc1 | 10.4%
Cc1ccc(-c2cn3c(n2)SCC3)cc1 | 5.9%
c1cc2c3c(cccc3c1)C(N1CCCCCC1)=N2 | -46.6%
